{
  "source": "paper PMC2694832",
  "about": "“Pharmacokinetics, tissue distribution and mass balance of radiolabeled dihydroartemisinin in male rats” (Malaria Journal, 2009)",
  "assay": "Tissue distribution of [^14C] DHA",
  "assay_type": "in vivo",
  "conditions": "male rats i.v. 3 mg/20 μCi/kg",
  "experimental": "Rats treated with a single [^14C] DHA dose of 3 mg/20 μCi/kg intravenously (5 rats per group) were anesthaetized by isofluorane and euthanized via cardiac puncture at 1, 6, 24, 48, 72, 96, and 192 hours, post-dosing. Blood, liver, brain, eyes, adrenals, muscle, lungs, heart, liver, kidneys, spleen, stomach, small intestine, large intestine, perirenal fat and bone marrow samples were removed from each animal by gross dissection. The gastrointestinal tract (GI) was separated into the stomach (oesophagus and stomach), small intestine, and large intestine. Contents were procured from each GI segment. After flushing with saline, these and other tissues were stored. Tissues were rinsed gently, but thoroughly with water to remove remaining traces of blood before storage. Dissecting instruments were also washed between tissue procurements to avoid cross-contamination.\nFor most of the tissues 20% (w/w) aqueous homogenates of the tissue were prepared. Aqueous homogenates of the faecal and GI content samples were also prepared. Metabolism cages were washed with a solution of 2% Count-off® and the volume was measured. Radioactivity in the plasma samples and in aliquots (approx. 0.02–1.0 ml) of urine and cage washings was determined. The blood cells (primarily erythrocytes), perirenal fat (approx. 0.2 g), bone marrow samples (approx. 0.1 ml), and approximately 300-μl aliquots of the homogenates of faeces, liver, kidneys, heart, brain, stomach and carcass were solubilized with SolvableTM tissue solubilizer (Perkin-Elmer Life and Analytical Sciences, Boston, MA). The homogenates of faeces, stomach content, and intestinal contents were extracted with 50% methanol for 24 hours. Aliquots of blood and pooled urine samples from selected intervals were also analysed for DHA content directly.\nTotal radioactivity in the collected tissue samples were quantified in duplicate. Weighed tissue aliquots (~0.2 g) were digested overnight in 2 ml of Solvable® tissue solubilizer (Perkin-Elmer Life and Analytical Sciences, Boston, MA) at 50°C. Coloured samples were decolourized by adding a maximum of 0.2 ml of 30% H2O2 for 30–60 minutes. Scintillation cocktail (Hyonic Fluor; Perkin-Elmer Boston. Massachusetts, USA) was then added and radioactivity determined in a Perkin-Elmer Tri-Carb 3100 TR scintillation spectrophotometer (Packard Instrument Co., Downers Grove, Illinois, USA). Faeces and intestinal contents were thoroughly homogenized before taking aliquots. Plasma was also analysed using the HPLC-ECD system to measure the concentration of unchanged DHA, as described by Li et al.",
  "note": "This continues a long series; more values of the same kind are listed elsewhere.",
  "data": [
    {"smiles": "C[C@@H]1CC[C@H]2[C@@H]([14CH3])C(O)O[C@@H]3O[C@@]4(C)CC[C@@H]1[C@]32OO4", "note": "(some centres unmarked) [[^14C] DHA, [16-^14C] DHA]", "values": [
      {"measurement": "Distribution of radioactivity", "setting": "Adrenals, 1 hr", "result": "5614.75 ng equivalents/tissue gram"},
      {"measurement": "Distribution of radioactivity", "setting": "Adrenals, 6 hr", "result": "3451.81 ng equivalents/tissue gram"},
      {"measurement": "Distribution of radioactivity", "setting": "Adrenals, 24 hr", "result": "2034.62 ng equivalents/tissue gram"},
      {"measurement": "Distribution of radioactivity", "setting": "Adrenals, 48 hr", "result": "3002.03 ng equivalents/tissue gram"},
      {"measurement": "Distribution of radioactivity", "setting": "Adrenals, 72 hr", "result": "1630.57 ng equivalents/tissue gram"},
      {"measurement": "Distribution of radioactivity", "setting": "Adrenals, 96 hr", "result": "1653.43 ng equivalents/tissue gram"},
      {"measurement": "Distribution of radioactivity", "setting": "Adrenals, 192 hr", "result": "1543.60 ng equivalents/tissue gram"},
      {"measurement": "Distribution of radioactivity", "setting": "Brain, 1 hr", "result": "578.68 ng equivalents/tissue gram"},
      {"measurement": "Distribution of radioactivity", "setting": "Brain, 6 hr", "result": "326.57 ng equivalents/tissue gram"},
      {"measurement": "Distribution of radioactivity", "setting": "Brain, 24 hr", "result": "160.11 ng equivalents/tissue gram"},
      {"measurement": "Distribution of radioactivity", "setting": "Brain, 48 hr", "result": "127.38 ng equivalents/tissue gram"},
      {"measurement": "Distribution of radioactivity", "setting": "Brain, 72 hr", "result": "138.35 ng equivalents/tissue gram"},
      {"measurement": "Distribution of radioactivity", "setting": "Brain, 96 hr", "result": "119.67 ng equivalents/tissue gram"},
      {"measurement": "Distribution of radioactivity", "setting": "Brain, 192 hr", "result": "133.52 ng equivalents/tissue gram"},
      {"measurement": "Distribution of radioactivity", "setting": "Eyes, 1 hr", "result": "279.20 ng equivalents/tissue gram"},
      {"measurement": "Distribution of radioactivity", "setting": "Eyes, 6 hr", "result": "239.95 ng equivalents/tissue gram"},
      {"measurement": "Distribution of radioactivity", "setting": "Eyes, 24 hr", "result": "64.78 ng equivalents/tissue gram"},
      {"measurement": "Distribution of radioactivity", "setting": "Eyes, 48 hr", "result": "46.86 ng equivalents/tissue gram"},
      {"measurement": "Distribution of radioactivity", "setting": "Eyes, 72 hr", "result": "51.58 ng equivalents/tissue gram"},
      {"measurement": "Distribution of radioactivity", "setting": "Eyes, 96 hr", "result": "98.06 ng equivalents/tissue gram"},
      {"measurement": "Distribution of radioactivity", "setting": "Eyes, 192 hr", "result": "121.94 ng equivalents/tissue gram"},
      {"measurement": "Distribution of radioactivity", "setting": "Fat, 1 hr", "result": "1391.80 ng equivalents/tissue gram"},
      {"measurement": "Distribution of radioactivity", "setting": "Fat, 6 hr", "result": "218.23 ng equivalents/tissue gram"},
      {"measurement": "Distribution of radioactivity", "setting": "Fat, 24 hr", "result": "80.24 ng equivalents/tissue gram"},
      {"measurement": "Distribution of radioactivity", "setting": "Fat, 48 hr", "result": "62.09 ng equivalents/tissue gram"},
      {"measurement": "Distribution of radioactivity", "setting": "Fat, 72 hr", "result": "61.62 ng equivalents/tissue gram"},
      {"measurement": "Distribution of radioactivity", "setting": "Fat, 96 hr", "result": "43.52 ng equivalents/tissue gram"},
      {"measurement": "Distribution of radioactivity", "setting": "Fat, 192 hr", "result": "84.86 ng equivalents/tissue gram"},
      {"measurement": "Distribution of radioactivity", "setting": "Muscle, 1 hr", "result": "698.14 ng equivalents/tissue gram"},
      {"measurement": "Distribution of radioactivity", "setting": "Muscle, 6 hr", "result": "499.29 ng equivalents/tissue gram"},
      {"measurement": "Distribution of radioactivity", "setting": "Muscle, 24 hr", "result": "171.74 ng equivalents/tissue gram"},
      {"measurement": "Distribution of radioactivity", "setting": "Muscle, 48 hr", "result": "163.19 ng equivalents/tissue gram"},
      {"measurement": "Distribution of radioactivity", "setting": "Muscle, 72 hr", "result": "174.04 ng equivalents/tissue gram"},
      {"measurement": "Distribution of radioactivity", "setting": "Muscle, 96 hr", "result": "92.20 ng equivalents/tissue gram"},
      {"measurement": "Distribution of radioactivity", "setting": "Muscle, 192 hr", "result": "115.14 ng equivalents/tissue gram"},
      {"measurement": "Distribution of radioactivity", "setting": "Plasma, 72 hr", "result": "64.70 ng equivalents/tissue gram"},
      {"measurement": "Distribution of radioactivity", "setting": "Plasma, 96 hr", "result": "34.58 ng equivalents/tissue gram"},
      {"measurement": "Distribution of radioactivity", "setting": "Plasma, 192 hr", "result": "22.84 ng equivalents/tissue gram"}
    ]}
  ]
}
